# In the supplement of paper PMC3334620:
# Over roughly 33,000 sequences, “E-score (-0.5 to 0.5)” has its median near -0.053; the highest 2% begin near 0.37. Some of the results follow.
# Molecular target: Hap1 (UniProt P0CE41)
# Test: PBM E-score (8-mer binding enrichment) (E-score (-0.5 to 0.5)); higher = stronger / more preferred TF binding; most listed sequences are background and not binding sites
# Conditions: protein concentration: 200 nM; construct: GST-DNA-binding domain
# Outline: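 Universal all-10-mer Agilent arrays, double-stranded by primer extension on fresh or once-stripped slides, were probed with about 100-200 nM GST-tagged yeast transcription factors made by PURExpress. Fluorescent anti-GST detected bound protein, and masliner normalised the scans. E-scores from the Universal PBM Analysis Suite were given to each ungapped eight-base word pooled with its reverse complement.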
# Sequence of UniProt P0CE41 (P0CE41 whole entry): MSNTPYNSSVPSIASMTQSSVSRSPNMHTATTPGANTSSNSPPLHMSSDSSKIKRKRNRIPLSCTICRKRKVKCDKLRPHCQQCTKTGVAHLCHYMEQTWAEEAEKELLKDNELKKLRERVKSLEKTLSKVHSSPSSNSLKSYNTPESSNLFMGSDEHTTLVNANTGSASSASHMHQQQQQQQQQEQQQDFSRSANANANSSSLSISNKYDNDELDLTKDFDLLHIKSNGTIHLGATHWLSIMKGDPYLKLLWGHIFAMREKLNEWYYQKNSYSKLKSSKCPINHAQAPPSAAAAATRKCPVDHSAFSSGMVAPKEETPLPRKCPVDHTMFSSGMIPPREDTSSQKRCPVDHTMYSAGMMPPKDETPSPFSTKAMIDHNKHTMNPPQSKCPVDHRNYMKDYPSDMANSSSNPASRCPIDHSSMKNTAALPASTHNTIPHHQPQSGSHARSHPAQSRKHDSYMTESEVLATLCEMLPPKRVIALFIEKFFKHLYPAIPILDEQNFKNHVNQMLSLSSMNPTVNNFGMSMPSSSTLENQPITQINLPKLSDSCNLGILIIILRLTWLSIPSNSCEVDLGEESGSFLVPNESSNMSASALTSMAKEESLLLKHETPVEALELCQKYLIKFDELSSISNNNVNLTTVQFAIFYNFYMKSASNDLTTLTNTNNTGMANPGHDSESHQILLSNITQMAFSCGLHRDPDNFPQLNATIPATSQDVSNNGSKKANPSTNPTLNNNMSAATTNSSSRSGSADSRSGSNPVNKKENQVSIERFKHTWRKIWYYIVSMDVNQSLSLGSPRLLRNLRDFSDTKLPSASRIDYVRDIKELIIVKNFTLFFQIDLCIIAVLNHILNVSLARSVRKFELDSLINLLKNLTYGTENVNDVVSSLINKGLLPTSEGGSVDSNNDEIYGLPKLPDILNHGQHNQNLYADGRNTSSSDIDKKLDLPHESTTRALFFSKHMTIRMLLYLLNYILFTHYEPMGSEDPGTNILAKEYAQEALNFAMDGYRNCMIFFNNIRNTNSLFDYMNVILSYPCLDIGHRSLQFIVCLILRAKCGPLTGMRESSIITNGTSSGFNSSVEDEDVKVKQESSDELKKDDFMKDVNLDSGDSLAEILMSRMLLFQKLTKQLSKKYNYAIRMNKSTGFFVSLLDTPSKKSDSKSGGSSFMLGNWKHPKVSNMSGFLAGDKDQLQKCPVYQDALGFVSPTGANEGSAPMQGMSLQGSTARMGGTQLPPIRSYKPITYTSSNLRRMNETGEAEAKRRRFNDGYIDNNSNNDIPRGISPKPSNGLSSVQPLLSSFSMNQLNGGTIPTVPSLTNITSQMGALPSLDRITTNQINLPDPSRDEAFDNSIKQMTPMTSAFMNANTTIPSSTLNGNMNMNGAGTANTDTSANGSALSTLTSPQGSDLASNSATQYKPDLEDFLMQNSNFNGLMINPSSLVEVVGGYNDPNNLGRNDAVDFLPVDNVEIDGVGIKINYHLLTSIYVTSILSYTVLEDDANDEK
row,Sequence,PBM E-score
1,GGTGAGCA,-0.228
2,CATAGCAA,-0.302
3,GCGGTGGA,0.0678
4,AGGCGGAT,0.188
5,CCTTACTC,0.17
6,ATTGCGAC,0.0472
7,CACTTCTC,-0.0463
8,CTCCCGAG,0.00876
9,CGGCTGAG,0.157
10,CGAGTGCA,0.133
11,AGCTTATC,0.184
12,CGTAATGC,0.0976
13,TCAAGAAA,0.0349
14,AATACCTA,-0.2
15,AGAAGCAT,-0.159
16,ATGCTACC,0.14
17,AAAGCGAT,0.172
18,CGCTACAG,-0.165
19,ATTCGATA,0.0211
20,CAAGACGC,0.109
21,GGAAAAAA,0.179
22,CACCAAGG,-0.0753
23,GAGAAAAA,0.203
24,TCCGGTAA,0.442
25,GCCGCAAA,0.259

row,Sequence,PBM E-score
1,TATTAGAA,-0.0615
2,ACCCTAAA,0.0981
3,AGGAAAAA,-0.185
4,CCCATGGG,0.165
5,GCAGGTAC,-0.0844
6,ACCATGGG,-0.147
7,GTATACTA,-0.144
8,ACCCACAG,-0.33
9,CGCGAATA,0.182
10,CAGAAATC,-0.0902
11,CAGACGTC,-0.175
12,CCGTGAAC,0.18
13,CGATTTTA,0.125
14,CAGCGGGA,0.117
15,AGAAAATC,-0.0625
16,AGATCGAT,-0.157
17,ACGATTTC,0.0291
18,ACACACCG,0.133
19,ATCAAGTC,-0.111
20,AGTCTCTG,-0.216
21,ATATCGAA,0.111
22,AAGAAAAC,0.0164
23,ATACGGAC,0.333
24,ACGATCTC,-0.00674
25,AAGGTTCT,-0.0171

row,Sequence,PBM E-score
1,CTATGTCC,0.274
2,CCTGGTTC,-0.00675
3,CGTTTAGA,0.0623
4,GAGCGCCA,-0.0926
5,GTAGCAAC,-0.102
6,CACGTTGG,-0.224
7,ACGGCGCG,0.193
8,ATAGCCGC,0.232
9,CGTCGACC,-0.113
10,ACTCCATA,-0.151
11,CACCGCAG,0.0498
12,AACAGGCA,-0.249
13,GTCACCCA,-0.158
14,CTTACACA,-0.297
15,GTCCACAC,0.0984
16,GATATATC,0.373
17,ACTGAGTA,-0.296
18,CTGGAATA,-0.0682
19,AAGACCAG,-0.0334
20,AACTACGC,0.124
21,ATTCTTGC,-0.0173
22,GCTCGGAC,0.403
23,CGTCTGCC,0.088
24,GCCGGAAC,0.371
25,ACATTTCA,-0.0859

row,Sequence,PBM E-score
1,ATAGTTCA,-0.0608
2,AATCCCGA,0.409
3,ATAATGCA,-0.132
4,ACACCCGG,0.326
5,AGTTGCAT,-0.0273
6,ACAGCAAA,-0.151
7,CGTGGAAA,0.0814
8,CGCAGCAC,-0.044
9,AGAGCATA,-0.104
10,AATATGGG,-0.307
11,CTTGCTCA,-0.129
12,ACATACAT,-0.112
13,CTGCCAAA,-0.0844
14,CGATTCTA,-0.0641
15,AAAAGTCC,0.249
16,AAGAAGGT,0.04
17,AGTCCACT,-0.297
18,CTACCGCC,0.209
19,AAGTCATC,-0.175
20,AGAAGGCC,-0.00229
21,AAGAACGG,0.144
22,AGACCAAG,0.0409
23,GAATGCAA,0.0554
24,ACCGGTAC,0.334
25,CGATAAGC,0.363

row,Sequence,PBM E-score
1,TGGAGGAA,-0.217
2,AGATAGGG,-0.111
3,ATGCGAAT,-0.0362
4,AATAATGA,-0.0797
5,GAAAATGA,-0.0489
6,CCTTAGCC,-0.0106
7,TCTAAAGA,-0.116
8,AACCTTAT,-0.17
9,ACTCCGGA,0.461
10,CCAGTCAA,-0.238
11,AACGGATA,0.398
12,ACGGGCAC,-0.105
13,CGCGAGGC,0.113
14,AATAGATC,0.043
15,AGAGCAAG,-0.0583
16,ACACGAGT,-0.0922
17,GCGGTATA,0.0943
18,CGTCCATA,0.0108
19,GGCCACCA,-0.0725
20,CGGAATTA,0.481
21,ACCTGATA,-0.172
22,CCCGTTCA,-0.0488
23,CCAACAGG,-0.269
24,CTATATAC,0.0474
25,AAAGGGGG,-0.176

row,Sequence,PBM E-score
1,TTGACAAA,-0.095
2,ACAATCGT,-0.187
3,GGTACTAA,0.171
4,GTGGCTAA,-0.152
5,ACGATCCC,0.0551
6,CCAAGCGG,0.0508
7,ATAACACG,0.0178
8,ATTTCCCA,-0.131
9,AGGCATCC,-0.128
10,GGAAGTTA,0.218
11,AATCAAAC,-0.11
12,CCCCCCGG,0.247
13,GGTTCATA,-0.0158
14,CGATCTAC,0.034
15,GTTGCTAA,0.00635
16,CTGTGAAG,-0.209
17,CCTGTTAC,-0.146
18,CGAACAGC,-0.0481
19,CCCTGTGA,-0.278
20,ATTGCAAG,-0.214
21,AGATCACA,-0.0521
22,AAGGCTAT,-0.0861
23,AGGCAGAA,-0.0485
24,CATGTGGC,-0.0312
25,CCCGAAAG,0.298

row,Sequence,PBM E-score
1,AGAGATCC,0.0435
2,CTAGCCGC,0.0113
3,CCACTTAC,0.103
4,GGCGCGCC,0.208
5,ACTACAAT,-0.0347
6,CCTGGGGC,-0.0213
7,AACTGCTC,0.0268
8,CGCTCTCC,0.122
9,ACATGAAT,-0.142
10,CCCCTCCA,-0.198
11,AGATTCCC,0.11
12,ACGATGGG,-0.119
13,CTATAACA,-0.249
14,TAATCAGA,-0.119
15,CATTTCAC,-0.0671
16,CTCCGCAC,0.0685
17,GCCCTCAC,-0.183
18,CATCTGCC,-0.0264
19,AACAGATC,-0.0165
20,GTTGGCTA,-0.181
21,ACGCGCCC,0.11
22,GGGTTACC,0.227
